Results: PubChem BioAssay AID1159614 (National Center for Advancing Translational Sciences (NCATS), 2016)
Screen size: about 45,000 compounds; about 65 (0.1%) were called active. Calls follow the shape of the dose curve; as a rule, active = well fitted activation curve with a large enough effect; inconclusive = small, poorly fitted or top-dose-only effect; inactive = no such curve, though single readings can be large or run the other way. The list shows a part of the results.

Target: Galactocerebrosidase (Homo sapiens) (UniProt P54803)
Experiment: A Novel Cell-Based Assay to Identify Small Molecules for B -Galactocerebrosidase; also: 0% is about no effect; nearly all actives have a fitted effect of over 65% in size
Details: 145M-Twi-hGALC-G270D cells (Twitcher mouse brain line with human GALC G270D), HMU-beta-Gal fluorescence, 48 h; series mostly up to 57.5 µM; activation: at the top concentration
Method in brief: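 Brain-derived Twitcher mouse 145M-Twi cells stably expressing human GALC-G270D or wild-type GALC, treated live, then residual GALC activity read by fluorescence of HMU-b-Gal substrate (0.1 mM final) in citrate-phosphate buffer pH 5.2 with sodium taurocholate. Signal increase indicates enhancement.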

Chain of UniProt P54803 (P54803 whole entry, looked up): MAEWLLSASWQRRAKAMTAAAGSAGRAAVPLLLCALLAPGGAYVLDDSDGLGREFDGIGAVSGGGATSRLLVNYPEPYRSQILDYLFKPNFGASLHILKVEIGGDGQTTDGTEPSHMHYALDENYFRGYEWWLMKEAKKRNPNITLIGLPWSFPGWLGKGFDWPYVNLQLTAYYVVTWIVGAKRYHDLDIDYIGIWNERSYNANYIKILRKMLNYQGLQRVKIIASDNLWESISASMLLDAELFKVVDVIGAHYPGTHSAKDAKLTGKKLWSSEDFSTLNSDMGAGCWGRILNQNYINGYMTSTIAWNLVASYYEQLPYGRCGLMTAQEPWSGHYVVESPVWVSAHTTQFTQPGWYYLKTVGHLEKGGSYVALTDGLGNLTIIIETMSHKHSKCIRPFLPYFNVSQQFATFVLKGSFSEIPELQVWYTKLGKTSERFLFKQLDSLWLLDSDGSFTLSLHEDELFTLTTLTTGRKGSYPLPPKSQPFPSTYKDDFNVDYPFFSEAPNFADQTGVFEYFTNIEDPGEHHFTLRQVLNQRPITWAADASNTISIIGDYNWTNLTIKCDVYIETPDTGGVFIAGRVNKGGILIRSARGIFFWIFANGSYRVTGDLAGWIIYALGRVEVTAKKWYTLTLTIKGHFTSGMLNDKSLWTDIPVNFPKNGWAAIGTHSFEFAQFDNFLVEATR

activation, inactive:
CSc1ccc(CCNC(=O)Cn2ncc3c([nH]c4ccccc43)c2=O)cc1 4.7%
O=C(c1ccccc1)n1nc(-c2ccc(Cl)cc2)nc1NCc1ccco1 10.9%
CCc1cccc(NC(=O)Cn2nc(C)c3sc4ccccc4c3c2=O)c1 -11.1%
Cc1ccc(C)c(CN2C(=O)CSc3ccc(C(=O)NCc4ccccc4)cc32)c1 -10.3%
COc1ccc(Cn2c(=O)c3ccccc3n3c(-c4ccc(C)cc4)nnc23)cc1 -15.3%
CCOc1ccc(NC(=O)c2ccc3nc(C(C)C)oc3c2)cc1 -5.49%
COc1ccc(Cn2c(C(=O)O)c(CNCc3ccc(C)o3)c3ccc(OC)cc32)cc1 1.35%
Cc1ccc(C)c(NC(=O)Cn2cc(S(=O)(=O)NC(C)C)c(S(=O)(=O)NC(C)C)c2)c1 -16%
CC(C)c1cc2c(cc1S(=O)(=O)O)[C@@]1(C)CCC[C@@](C)(C(=O)O)[C@@H]1CC2 -11.9%
COc1cc(C(=O)Nc2c(C(=O)Nc3ccccc3F)oc3ccccc23)cc(OC)c1OC -10.8%
Cc1ccc(OCc2cc(=O)n3cc(C)sc3n2)c(NC(=O)c2ccco2)c1 5.78%
CCC(=O)N1c2ccc(S(=O)(=O)CCC(=O)N3CCN(c4ccc(F)cc4)CC3)cc2CC1C (configuration not stated) -8.54%
COc1ccc2c(c1)CC(NC(=O)Nc1ccc(Br)c(C)c1)CO2 (configuration not stated) -15.9%
CCCn1c(NCc2ccccc2F)nc2ccccc21 -4.9%
O=C(Nc1cccc(NC(=O)c2ccc(Br)cc2)c1)c1ccccc1 -15.9%
CCN(C(=O)c1cccn(Cc2cccc(Cl)c2)c1=O)c1ccccc1 -1.42%
CCOC(=O)N1CCc2c(sc(NCc3cccc(F)c3)c2C(=O)Nc2ccc(OCC)cc2)C1 -24.3%
CCCCCNC(=O)c1ccc2c(=O)n(CCc3ccccc3)c(=O)[nH]c2c1 -10.4%
COc1ccc(C(=O)Nc2nonc2-c2ccc(OC)c(OC)c2)cc1Cl 21.6%
Cc1ccc(-c2nc(Cn3c(SCc4ccc(F)cc4)nc4cccnc43)c(C)o2)cc1 -6.77%
COc1ccc(-c2nnc(SCC(=O)Oc3cc(C)ccc3C)o2)cc1 6.58%
O=C(NCc1cccc(F)c1)c1ccc2nc(CCc3ccccc3)oc2c1 -13%
CCOC(=O)c1cc2c(=O)n3ccccc3nc2n(CC2CCCO2)c1=NC(=O)c1ccc(F)cc1 (configuration not stated) -11.5%
CC(C)Oc1ccc(CNC(=O)c2ccc3c(c2)N(C)C(=O)C2CCCCN32)cc1 (configuration not stated) 0.0602%
Cc1ccc(N2CC(NC(=O)C3CCCC3)CC2=O)cc1C (configuration not stated) -5.38%
CCc1cc(C(=O)NCc2ccc(F)cc2)no1 -14%
CC(=O)c1ccc(S(=O)(=O)N2CCn3cccc3C2c2ccc(F)c(F)c2)cc1 (configuration not stated) -8.26%
CN(C)C(=O)C(CCN1CCC(O)(c2ccc(Cl)cc2)CC1)(c1ccccc1)c1ccccc1 -7.89%
COc1ccc(CNc2ncnc3c2c(-c2ccccc2)cn3-c2cccc(C)c2)cc1 -10.3%
COc1ccc(C(=O)Nc2cc(NC(=O)c3ccco3)ccc2OC)cc1Cl 7.33%
O=C(CSc1nccn1-c1ccc(F)cc1)Nc1cccc2ccccc12 -12%
CCc1nnc(SCc2nc(-c3cccc(C)c3)oc2C)c2cc3sc(C)cc3n12 -5.89%
Cc1ccc(NC(=O)CSc2nc(C3CCCC3)nc3c2c(=O)n(C)c(=O)n3C)c(C)c1 3.43%
COc1cccc(NC(=O)C2CCN(S(=O)(=O)c3c(C)noc3/C=C/c3cccs3)CC2)c1 -3.37%
O=C(COc1ccccc1Cl)Nc1nc(-c2ccc(F)cc2)ns1 -41.5%
CCN1CCN(c2cc(C)c3cc(NC(=O)/C=C/c4ccc(OCCC(C)C)cc4)ccc3n2)CC1 -19.9%
CCOc1ccc(C(=O)NCCc2csc(-c3cccnc3)n2)cc1 -20.7%
CCN(CC)S(=O)(=O)c1ccc2c(c1)N(CC(=O)NCCCN1CCN(c3cc(C)ccc3C)CC1)C(=O)CO2 -23.6%
Cc1ccc(NC(=O)C2CCCN(S(=O)(=O)c3cccc4nsnc34)C2)c(C)c1 (configuration not stated) -8.83%
O=C(Cn1c(=O)n(-c2ccc(F)c(Cl)c2)c(=O)c2sc3ccccc3c21)NC1CCCCC1 -9.52%
CN1CCN(C2(CNC(=O)COc3ccc(C(C)(C)C)cc3)CCCCC2)CC1 2.13%
Cc1ccc(Cl)cc1Nc1nn2c(=O)c3ccc(C(=O)NC4CCC(C)CC4)cc3nc2s1 (configuration not stated) 5.95%
CCn1c(=N)c(C(=O)NC2CCCC2)cc2c(=O)n3cc(C)ccc3nc21 1.94%
Cc1ccc(OCCCCn2nnc3sc4c(c3c2=O)CCC(C)C4)cc1 (configuration not stated) -4.24%
CCOC(=O)c1c(-c2ccccc2)oc2cc(Br)c(OCc3ccccc3)cc12 15.4%
CCc1ccc(NC(=O)Cn2c(=O)n(CCC(=O)NCCc3ccc(OC)c(OC)c3)c(=O)c3ccccc32)cc1 -3.34%
CCC(C)S(=O)(=O)c1oc(-c2ccc(F)cc2)nc1S(=O)(=O)c1ccc(F)cc1 (configuration not stated) -23.7%
CCOc1ccc(-n2nc3ccc(NC(=O)COc4ccccc4)cc3n2)cc1 -7.76%
Cc1cc(C)cc(NC(=O)C2CCN(c3nc4ccccc4nc3C(F)(F)F)CC2)c1 -8.51%
CCNC(=O)C1CCCN(c2nn3cc(-c4ccc(C)cc4)nc3s2)C1 (configuration not stated) -22%
CC(C)c1ccc(CNCCSc2nnnn2-c2ccccc2)cc1 -3.72%
CCCn1c(=N)c(C(=O)NC2CCCCC2)cc2c(=O)n3cc(C)ccc3nc21 1.29%
CCOC(=O)c1cc(-c2ccccc2)n(-c2cccc(C(=O)NC(C)(C)C)c2)c1C -33.5%
CCOC(=O)c1cnc2ccc(OCC)cc2c1NCCc1ccc(OC)c(OC)c1 -22.2%
Cc1ccccc1C(=O)Nc1ccc(C(=O)N2CCCC(O)c3cc(Cl)ccc32)c(C)c1 (configuration not stated) -5.63%
CC(C)COc1ccc(C(=O)N(Cc2cccc(F)c2)C2CCS(=O)(=O)C2)cc1 (configuration not stated) -10.5%
CCOc1ccc(S(=O)(=O)NCc2cccn2Cc2cccc(C)c2)cc1 -4.02%
Cc1ccc(NS(=O)(=O)c2c(C)nc3sc(C)c(C)n3c2=O)cc1F -0.485%
CCc1cccc(C)c1NC(=O)C(NS(=O)(=O)c1ccc2c(c1)CCC(=O)N2)c1ccccc1 (configuration not stated) -14.3%
CC[N+](CC)(CC)CCOc1ccc(/C=C/c2ccccc2)cc1 1.98%
CCN1CCc2c(sc(-n3cccc3)c2C(CCC(C)C)NC(=O)NCCC(=O)OC)C1 (configuration not stated) -10.8%
CCCn1c2ccccc2c2cnn(CC(=O)NCCCOC(C)C)c(=O)c21 -10.1%
